# Data from the supplement of paper PMC6135742.
# Structures can show the parent of a compound that is named as a salt. ± gives the standard deviation of the averaged measurements. Over roughly 2,600 compounds, “total cell number (DAPI+ nuclei) relative to DMSO vehicle control” has its median near -1.4; the lowest 2% begin near -23. This is one part of the list.
# Test system: jimpy (Plp1 jimpy) mouse iPSC-derived oligodendrocyte progenitor cells
# Experiment: total cell number (DAPI+ nuclei) relative to DMSO vehicle control (SDs above negative control mean); higher = more surviving cells
# Details: 10 µM; 3 days
# Experimental: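 Primary phenotypic screen of >3,000 bioactive compounds (Selleck L1700 and Sigma LO1280 libraries) at a single dose of 10 µM. Compounds were added to jimpy (Plp1 mutant) mouse iPSC-derived OPCs at the start of thyroid hormone-induced oligodendrocyte differentiation, one well per compound in 384-well plates. After 3 days cells were stained for MBP, Sox10 and DAPI and imaged with an Operetta system. MBP+ oligodendrocyte number and total cell number were expressed as the number of SDs above the mean of the DMSO negative control on the same plate (n=16 control wells per plate). Hits were defined as >=4 SD for oligodendrocytes and >=2 SD for total cells.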
row,Compound,total cell number
1,O=C(Cc1ccc(-c2ccc(OCCN3CCOCC3)cc2)cn1)NCc1ccccc1,-1.88
2,Nc1ncn([C@H]2C[C@H](O)[C@@H](CO)O2)c(=O)n1 [Decitabine],-3.74
3,NCCCCNCCCN [Spermidine trihydrochloride],0.483
4,CC(=O)[C@H]1CC[C@H]2[C@@H]3CC=C4C[C@@H](OS(=O)(=O)O)CC[C@]4(C)[C@H]3CC[C@]12C [Pregnenolone sulfate sodium],0.54
5,Clc1ccc(COC(Cn2ccnc2)c2ccc(Cl)cc2Cl)c(Cl)c1 (stereo not given) [Miconazole],-4.21
6,Clc1ccc(COC(Cn2ccnc2)c2ccc(Cl)cc2Cl)c(Cl)c1 (stereo not given) [Miconazole Nitrate],-4.97
7,Cc1cc(=O)n(-c2ccccc2)n1C [Antipyrine],-1.95
8,NCC=CC(=O)O (stereo in doubt) [cis-4-Aminocrotonic acid],-1.37
9,CO[C@H]1O[C@@H]2O[C@@]3(C)CC[C@H]4[C@H](C)CC[C@@H]([C@H]1C)[C@@]24OO3 [Artemether],-1.54 ± 0.17
10,CC1(C2CCCC2)Cc2cc(OCC(=O)O)c(Cl)c(Cl)c2C1=O (stereo not given),-1.28
11,O=c1c2ccccc2oc2ccccc12 [Xanthone],-0.222
12,NC12CC3CC(CC(C3)C1)C2 [Amantadine hydrochloride],0.385
13,NC12CC3CC(CC(C3)C1)C2 [Amantadine HCl],0.159
14,N#C/C(=C\c1ccc(O)c(O)c1)C(=O)c1ccc(O)c(O)c1 [Tyrphostin AG 538],-0.923
15,CC1CCc2c(N3CCC(O)CC3)c(F)cc3c(=O)c(C(=O)O)cn1c23 (stereo not given) [Nadifloxacin],-0.436
16,Brc1ccc([C@H]2CN3CCSC3=N2)cc1 [S(-)-p-Bromotetramisole oxalate],-0.289
17,C=CC[C@H](N)C(=O)O [L-allylglycine],-2.84
18,O=C(O)c1ccccc1Nc1ccccc1 [N-Phenylanthranilic acid],-1.13
19,Cc1c(Cc2ccc3ccccc3n2)c2cc(F)ccc2n1CC(=O)O,-0.876
20,CN1CCN(C2=Nc3cc(Cl)ccc3Nc3ccccc32)CC1 [Clozapine],-4.737 ± 0.044

row,Compound,total cell number
1,CO[C@@H](C(=O)N1Cc2[nH]nc(NC(=O)c3ccc(N4CCN(C)CC4)cc3)c2C1)c1ccccc1,-24.2
2,O=c1ccc2ccccc2o1 [Coumarin],-1.51
3,CN(C)CCCN1c2ccccc2Sc2ccc(Cl)cc21 [Chlorpromazine hydrochloride],-9.15
4,CN(C)CCCN1c2ccccc2Sc2ccc(Cl)cc21 [Chlorpromazine HCl],-10.9
5,Nc1ccc(C(=O)Nc2cccc(-c3nc(N4CCOCC4)c4oc5ncccc5c4n3)c2)cn1,-18.4
6,O=C1NC(=O)/C(=C/c2ccc3c(c2)OC(F)(F)O3)S1,1.89
7,CCCCOc1cc(CC2CNC(=O)N2)ccc1OC (stereo not given),-2.87
8,CC(C)Cn1c(=O)n(C)c(=O)c2[nH]cnc21 [3-Isobutyl-1-methylxanthine],0.419
9,O=c1[nH]cnc2c1ncn2[C@@H]1O[C@H](CO)[C@@H](O)[C@H]1O [Inosine],-1.07
10,CCOc1ccccc1OC(c1ccccc1)C1CNCCO1 (stereo not given) [Reboxetine mesylate],-4.13
11,COc1cc([C@@H]2c3cc4c(cc3[C@@H](O[C@@H]3O[C@@H]5CO[C@@H](c6cccs6)O[C@H]5[C@H](O)[C@H]3O)[C@H]3COC(=O)[C@H]23)OCO4)cc(OC)c1O [Teniposide],-16.6
12,COC1CCN(C(=O)c2cc(Cc3n[nH]c(=O)c4ccccc34)ccc2F)CC1,-5.07
13,c1cncc(CN2CCC(n3ncc4c(N5CCOCC5)nc(-c5ccc6[nH]ccc6c5)nc43)CC2)c1,-10.5
14,Nc1ccc(S(=O)(=O)Nc2ccccn2)cc1 [Sulfapyridine],-0.402
15,O=C(O)[C@H]1O[C@@H](Oc2cc3oc(-c4ccccc4)cc(=O)c3c(O)c2O)[C@H](O)[C@@H](O)[C@@H]1O [Baicalin],-0.866
16,N[C@@H](Cc1ccc(O)c(I)c1)C(=O)O [3-Iodo-L-tyrosine],-2.23
17,Cc1[nH]c2ccccc2c1CCNCc1ccc(/C=C/C(=O)NO)cc1 [Panobinostat (LBH589)],-20.7
18,Nc1ncnc2c1ncn2C1CCCO1 (stereo not given),-0.79
19,Nc1ccn([C@@H]2O[C@H](CO)[C@@H](O)[C@@H]2O)c(=O)n1 [Cytosine-1-beta-D-arabinofuranoside hydrochloride],-5.95
20,Nc1ccn([C@@H]2O[C@H](CO)[C@@H](O)[C@@H]2O)c(=O)n1 [Cytarabine],-6.97
